Among all 50,000 compounds or so, about 800 (1.6%) showed an effect of 50% or more. Some of the results follow.

Data on 71 molecules can be found in PubChem BioAssay AID1240 (Sanford-Burnham Center for Chemical Genomics, 2008).

The target of the experiment is Bcl-2-like protein 10 (Homo sapiens) (UniProt Q9HD36). The experiment can be described thus: Phenotype converters, Bcl-B/TR3 peptide binding displacement, primary biochemical FP (AID 1240).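 Further: 0% = Bcl-B with tracer peptide and DMSO and 100% = tracer peptide lacking Bcl-B.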 The conditions noted are these: GST-Bcl-B / FITC-TR3 peptide fluorescence polarization; stronger effect = higher value; compound at 3.75 mg/L.
Sequence of UniProt Q9HD36 (Q9HD36 whole entry, looked up): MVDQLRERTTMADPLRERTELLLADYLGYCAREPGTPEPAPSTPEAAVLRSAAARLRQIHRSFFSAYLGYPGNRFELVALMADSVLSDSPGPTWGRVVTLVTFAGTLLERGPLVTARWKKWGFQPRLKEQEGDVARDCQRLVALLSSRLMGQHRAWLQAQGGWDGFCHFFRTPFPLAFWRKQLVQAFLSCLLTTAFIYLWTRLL
On to `CCN=C(Nc1ccc2c(c1)OCO2)SC1CC(=O)N(c2ccc(Br)cc2)C1=O` (stereo unspecified), for which the displacement was -0.2%.
On to `O=C(COc1cccc2ccccc12)Nc1ccc2c(c1)OCCO2`, for which the displacement came to 8.3%.
As to `COc1ccc(OC)c(N(CC(=O)Nc2cccc(Br)c2)S(C)(=O)=O)c1`, the displacement was 12.2%.
Under `Cc1cc(OCC(=O)N2CCCC2)ccc1Br` stands -9.6%; under `C/C(CC(=O)Nc1ccc(Nc2ccccc2)cc1)=N\NC(=O)c1ccoc1C`, 0.4%.
Under `CC12CN3CC(C)(CN(C1)C3(C)CSc1c[nH]c3ccccc13)C2=O` (stereo unspecified) stands -14%; under `O=C(Nc1ccc(Cl)cc1)C1CC2c3ccccc3C1c1ccccc12` (stereo unspecified), -8.9%; under `COc1cc(NC(=O)c2cccc3c(Br)cccc23)ccc1NC(=O)c1ccco1`, 1.8%.
The same measure for `COc1cc(OC)c(OC)cc1CN1CCN(C(=O)c2ccc([N+](=O)[O-])cc2)CC1`: -0.3%.
Regarding `O=C(O)C1CCCCC1C(=O)Nc1ccccc1Nc1ccccc1` (stereo unspecified), the displacement is -5.8%.
As for `Cc1ccc2nc(SCc3ccc(Cl)cc3)nc(C)c2c1`, the displacement turned out to be 13.1%.
Take `N/C(=N\OC(=O)c1ccccc1I)c1ccccn1`: the displacement is 0.5%.
Consider `COc1ccccc1CNC(=O)c1ccc(OC)c([N+](=O)[O-])c1`, for which the displacement came out at 13%.
The same measure for `O=C1C(=O)N(CCc2ccccc2)c2ccccc21`: 1%.
Take `O=C1C=CC(=NOC(=O)c2ccccc2)C=C1`: the displacement was 27.5%.
The same measure for `CCOc1ccc(C(=O)N2CCC(Cc3ccccc3)CC2)cc1OCC`: 10%; for `O=C(COc1ccc2ccccc2c1)NNC(=O)c1ccc(Cl)cc1`: -4.6%.
Consider `Cc1ccc(OCC(=O)Nc2cc(Cl)cc(Cl)c2)cc1`, for which the displacement amounted to 12.4%.
With `COc1ccc(C(=O)N2CCN(C3CC4CCC3C4)CC2)cc1` (stereo unspecified), the displacement is -12.4%.
For the molecule `Cc1ccc(C(=O)Nc2ncn[nH]2)cc1`, the displacement was 1.4%.
Under `O=C(O)C(c1ccccc1)C(C(=O)O)c1ccccc1` (stereo unspecified) stands 14.5%; under `N/C(=N\OC(=O)c1ccccc1Br)c1ccccn1`, 6.5%.
With `O=C1CSC(=O)N1c1cccc(O)c1`, the displacement was found to be 9.3%.
Under `CCOC(=O)CSc1nnc(-c2ccc(Br)cc2)o1` stands 7%.
Under `O=C(Nc1ccc(Br)cc1)Nc1cccc(Cl)c1` stands 3.8%.
On to `C=CCNC(=O)NC(=O)C12CC3CC(CC(C3)C1)C2`, for which the displacement was 2.8%.
Take `CCOC(=O)/C=C(\C)Nc1cc(-c2ccc(Cl)cc2)[nH]n1`: the displacement is -2.6%.
In the case of `CC(=O)c1ccc(NC(=S)NC(NC(=O)c2ccc(C)cc2)C(Cl)(Cl)Cl)cc1` (stereo unspecified), the displacement was 8.7%.
For `CCOc1ccccc1NC(=O)CSCc1ccc(Cl)cc1Cl`, the displacement was 6.2%.
Turning to `CCOC(=O)c1c(NC(=O)c2ccc(OC(C)C)c(OCC)c2)sc2ccccc12`, the displacement came out at 80%.
As to `O=C(c1cccc(Br)c1)N1CCN(c2ccc(Cl)cc2[N+](=O)[O-])CC1`, the displacement is -9.9%.
The same measure for `COC(=O)C1=C(C)N=c2s/c(=C/c3cccc([N+](=O)[O-])c3)c(=O)n2C1c1ccc(OC(C)=O)cc1` (stereo unspecified): 8.7%; for `COc1ccc(C/C(N)=N/OC(=O)Cc2ccc(OC)c(OC)c2)cc1`: 5.2%.
The same measure for `O=C1/C(=C\C=C\c2ccccc2)SC(=S)N1Cc1ccc(Cl)c(Cl)c1`: 2.5%.
The same measure for `Cc1cccc(C(C)C)c1NC(=O)CCCOc1ccccc1`: -2%; for `COc1ccc(CCNC(=O)COc2ccc(Br)c(C)c2)cc1`: 4.8%; for `Cc1ccc(N(Cc2c(O)ccc3ccccc23)C(=O)c2cccc([N+](=O)[O-])c2)cc1`: 2.7%.
As to `CC(C)(C)c1cc(/C=N/Nc2ccc(C(F)(F)F)cn2)cc(C(C)(C)C)c1O`, the displacement was found to be 14.1%.
Under `O=C(NC(NC(=S)Nc1ccccc1Br)C(Cl)(Cl)Cl)c1ccccc1` (stereo unspecified) stands 2.8%; under `COc1ccc(COC(=O)C2=C(C)NC(=O)NC2c2ccc3c(c2)OCO3)cc1` (stereo unspecified), 4.4%.
Consider `CC(=O)C1=C(Nc2ccccc2)CC(C)(O)C(C(C)=O)C1c1cccnc1` (stereo unspecified), for which the displacement came to 5.6%.
Take `COc1ccc(C(=O)Nc2nc(-c3ccc(F)cc3)cs2)cc1`: the displacement was 12%.
The same measure for `O=C1c2cccc3cccc(c23)C(=O)N1Cc1ccc2c(c1)OCO2`: 19%; for `COc1ccc(C2CC(=O)C3=C(C2)Nc2ccccc2NC3c2ccc(O)cc2)cc1` (stereo unspecified): -1.5%.
Regarding `C=CCN1C(=O)/C(=C/c2ccc(N(C)C)cc2)S/C1=N\c1nnc(CC)s1`, the displacement is -16.4%.
Turning to `C(=N\n1cnnc1SCc1ccccc1)/c1ccco1`, the displacement is -1.5%.
For the molecule `COc1ccccc1CNC(=O)N1CCOCC1`, the displacement came out at 11.9%.
On to `Cc1ccccc1OCC(=O)Nc1ccc2c(c1)Cc1ccccc1-2`, for which the displacement was determined as 5.9%.
For `O=C(CN(c1cccc([N+](=O)[O-])c1)S(=O)(=O)c1ccccc1)Nc1ccc2ccccc2c1`, the displacement is -7.4%.
Under `COC1C(C)=C(c2ccccc2F)C(=O)N1Cc1ccccc1` (stereo unspecified) stands 14.3%; under `O=C1NN(c2ccccc2)C(=O)/C1=C/c1ccc(-c2ccccc2Cl)o1`, -13.5%.
Under `COc1cc2ccccc2cc1C(=O)Nc1ccc(OC(F)(F)F)cc1` stands -1.6%; under `CC1CCN(c2cc(N3CCN(C(=O)c4c(F)cccc4F)CC3)c([N+](=O)[O-])cc2F)CC1`, -15.3%; under `O=C1C2C3C=CC(C3)C2C(=O)N1/N=C/c1ccccc1I` (stereo unspecified), 17.4%.
`O=C(Nc1ccccc1C(=O)NC(Cc1c[nH]c2ccccc12)C(=O)O)c1ccccc1` (stereo unspecified): the displacement is -7.8%.
For `O=C(NCC1CCCO1)C(=O)Nc1ccc(Oc2ccccc2)cc1` (stereo unspecified), the displacement was -1%.
The same measure for `O=C(CSc1n[nH]c(-c2ccccc2)n1)c1ccccc1`: 13%; for `COc1ccc(C)cc1NC(=O)c1cccc([N+](=O)[O-])c1C`: -8.3%.
As for `CC1=NNC(=O)/C1=C\c1cn(-c2ccccc2)nc1-c1ccc(C)o1`, the displacement is -22.6%.
In the case of `CC1(C)CC(=O)C=C(Nc2cc(-c3ccccc3)[nH]n2)C1`, the displacement is -6%.
The same measure for `O=C(Nc1ccc(Cl)c(-c2nc3ccccc3s2)c1)c1cccs1`: 3.6%; for `CCC(C(=O)N1CCOCC1)c1ccccc1` (stereo unspecified): 12.2%; for `O=C(CNC(=O)c1ccc(Cl)cc1)c1ccccc1`: -7.4%.
With `CCOC(=O)c1ccc(NC(=O)CN(c2ccccc2OCC)S(=O)(=O)c2ccccc2)cc1`, the displacement is -3.1%.
The same measure for `Cc1cccc(-c2nc3cc(NC(=S)NC(=O)c4ccco4)ccc3o2)c1`: 11.2%; for `CS(=O)(=O)NNC(=O)[C@H]1C[C@H]1c1ccccc1`: -10.7%; for `Nc1ncc(Cc2ccccc2[N+](=O)[O-])s1`: 17.6%.
Regarding `COc1cc(C(=O)NCCOc2ccccc2C)cc(OC)c1OC`, the displacement is 13.4%.
Under `O=[N+]([O-])c1cccc(C(=S)N2CCOCC2)c1` stands 14.1%; under `Cc1ccc(C(C)C)c(OCC(=O)Nc2c(C)cc(Br)cc2C)c1`, -10.2%; under `COc1cccc(CN2CCN(S(=O)(=O)c3ccc(Cl)cc3)CC2)c1OC`, -15%.
